From PubChem BioAssay AID463173 (ICCB-Longwood Screening Facility, Harvard Medical School, 2010)
Screen size: about 52,000 compounds; about 4,300 (8.3%) were called active. No stated cut-off is given here; in the data, active means survival mostly below about 52% (no sharp cut-off); inactive means mostly above about 56%. Some of the results follow.

test system: DeltatarO mutant; assay: S. aureus survival, RN4220 and DeltatarO strains – OD600, teichoic acid synthesis inhibitors, primary screen (AID 463173); details: S. aureus RN4220 wild type/DeltatarO growth, OD600, 18 h, active compounds read low, screened at 18.75 µg/mL (by protocol)

Row | SMILES | survival
1 | Cc1c(C(=O)NCc2ccccc2Br)oc2c1-c1[nH]ncc1CC2 | inactive: 64%
2 | CCN1CCN(c2c(S(=O)(=O)c3ccc(OC)cc3)cnc3cc(OC)c(OC)cc23)CC1 | inactive: 79%
3 | CCOC(=O)C(CC)Sc1ccc2nnc(CCNS(=O)(=O)c3ccc(C)cc3)n2n1 (stereo unspecified) | inactive: 60%
4 | COc1cccc2c1Oc1ncccc1N(C(=O)Nc1ccc(F)c(Cl)c1)C2 | inactive: 135%
5 | Cc1ccc(C)c(CN2C(=O)c3ccccc3S(=O)c3ccc(C(=O)NCc4ccccc4)cc32)c1 (stereo unspecified) | inactive: 83%
6 | COc1ccccc1Cc1nc2ccccc2[nH]c1=O | inactive: 54%
7 | COc1ccc(NC(=O)c2ccc(-c3nc(CSc4ccccc4)c(C)o3)cc2)cc1OC | inactive: 84%
8 | Cc1cc(C)cc(NS(=O)(=O)c2ccc3c(c2)NC(=O)C(C)S3)c1 (stereo unspecified) | active: 11%
9 | CCOC(=O)c1c(C)oc2nc(C)nc(Nc3ccc(CC)cc3)c12 | inactive: 115%
10 | CCn1c(C(=O)N2CCC(C(=O)NCCc3ccc(OC)cc3OC)CC2)cc2sccc21 | inactive: 108%
11 | Cc1ccc(NCc2cc(=O)[nH]c3ccccc23)cc1 | inactive: 71%
12 | COc1ccc(Cl)cc1NC(=O)CN(C(=O)c1ccco1)C1CCCCC1 | inactive: 113%
13 | COc1ccc(C(=O)C[N+]2=C(C)c3ccc(C)n3CC2)cc1 | inactive: 99%
14 | CC(C)Cn1c(=O)c2ccccc2n2c(CCC(=O)N3CCN(c4ccccc4F)CC3)nnc12 | inactive: 92%
15 | CCCn1c(-c2ccc(S(=O)(=O)N3CCOCC3)cc2)csc1=Nc1ccc(OCC)cc1 | inactive: 70%
16 | Cc1ccc2nc(-c3ccc(O)cc3)c(Nc3ccc4c(c3)OCCO4)n2c1 | inactive: 70%
17 | O=C(NCc1ccccc1Cl)C(=O)NCC(c1cccs1)S(=O)(=O)c1cccs1 (stereo unspecified) | inactive: 88%
18 | CCCSCCCNC(=O)C1CCN(c2nn3cc(-c4ccc(F)cc4)nc3s2)CC1 | inactive: 73%
19 | CCn1cc(C(=O)N2CCN(c3cccc(Cl)c3)CC2)c(=O)c2cc(S(=O)(=O)N3CCCCC3)ccc21 | inactive: 78%

Row | SMILES | survival
20 | O=C(CN1CCCC1)N1c2ccccc2Sc2ccccc21 | inactive: 88%
21 | COc1ccc(OC)c(NC(=O)Cn2c(=O)n(Cc3ccccc3)c(=O)c3ccccc32)c1 | inactive: 77%
22 | COc1ccc(C(CNC(=O)c2oc3ccc(C)cc3c2C)N2CCOCC2)cc1 (stereo unspecified) | inactive: 61%
23 | COc1ccc(OC)c(NC(=O)N2CCN(S(=O)(=O)c3ccc4c(ccn4C)c3)CC2)c1 | inactive: 55%
24 | COc1cc(OC)cc(C(=O)Nc2ccc3nc(N4CCCCC4)cc(C)c3c2)c1 | active: 31%
25 | O=C(CN1C(=O)CCc2cc(S(=O)(=O)N3CCOCC3)ccc21)NCc1ccc(F)cc1 | inactive: 93%
26 | CCc1cccc(NC(=O)Nc2csc3c2CCCC3)c1 | inactive: 114%
27 | Cc1ccc(CNC(=O)c2ccc3c(c2)nc(C)n3-c2cc(C)cc(C)c2)cc1 | inactive: 71%
28 | O=C(COc1ccccc1F)Nc1ccc(-c2nc3ccccc3s2)cc1 | inactive: 67%
29 | Cc1ccc(N(CC(=O)NCCc2ccccc2)S(=O)(=O)N(C)C)cc1 | inactive: 88%
30 | COc1cccc(NC(=O)CNC(=O)Cn2c(C)cc3ccccc3c2=O)c1 | inactive: 76%
31 | COc1cc(C)ccc1OCCSc1nc2ccc(NC(=O)c3ccc(F)cc3)cc2s1 | inactive: 56%
32 | CCCCOc1ccc(C(=O)Nc2ccc(-c3nc4ccccc4s3)cc2C)cc1 | inactive: 67%
33 | Cn1ccc2cc(S(=O)(=O)N3CCC(C(=O)NCCc4ccccc4)CC3)ccc21 | inactive: 89%
34 | N#Cc1ccccc1NC(=O)Cn1cnc2onc(-c3cccc(F)c3)c2c1=O | inactive: 82%
35 | Cc1ccc(C)n1-c1nnc(N2CCCC(C(=O)Nc3ccc(C(C)C)cc3)C2)s1 (stereo unspecified) | inactive: 88%
36 | COC(=O)c1ccccc1NC(=O)Cn1c(=O)n(Cc2ccc(C(=O)NCc3ccc4c(c3)OCO4)cc2)c(=O)c2ccccc21 | inactive: 63%
37 | CCOC(=O)CCc1c(C)nc(SCC(=O)O)c(C#N)c1C | inactive: 82%
38 | COc1cccc(C(=O)c2sc3nc(-c4ccccc4)cc(C(F)(F)F)c3c2N)c1 | active: 37%

Row | SMILES | survival
39 | CCn1c(SCCN2CCCC2)nnc1C1CCCN(C(=O)c2ccc3c(c2)OCO3)C1 (stereo unspecified) | inactive: 78%
40 | CC(C)(C)OC(=O)N1CC2C(C1)C2NC(=O)c1nsc(Cl)c1Cl (stereo unspecified) | inactive: 82%
41 | Cc1ccc(C)c(N2C(=O)N(Cc3cc(=O)n4ccccc4n3)c3ccccc3S2(=O)=O)c1 | inactive: 71%
42 | CCOC(=O)c1c(C)oc2ncnc(Nc3ccc(OCC)cc3)c12 | inactive: 89%
43 | CC1(C)CC(=O)c2cc(-c3nc(-c4ccc(Cl)cc4)cs3)c(=O)n(-c3ccc(Cl)cc3)c2C1 | inactive: 68%
44 | COc1ccc(NC(=O)Cn2nc(-c3ccncc3)ccc2=O)cc1Cl | inactive: 92%
45 | CCn1c(=N)c(S(=O)(=O)c2ccc(C)cc2)cc2c(=O)n3ccccc3nc21 | inactive: 83%
46 | O=C(CNC1CCCC1)Nc1ccc(N2CCCC2)cc1 | inactive: 61%
47 | CCc1ccc(NC(=O)CN2C(=O)C3(SCC(=O)N3c3ccccc3)c3ccccc32)cc1 (stereo unspecified) | inactive: 129%
48 | CCOC(=O)C1CCN(CC(=O)N2CCCc3c2c(=O)oc2ccc(OCc4ccccc4)cc32)CC1 | inactive: 105%
49 | COc1ccc(-c2onc(C)c2C)cc1S(=O)(=O)N(C)Cc1ccco1 | inactive: 85%
50 | CN1C(=O)C2(SCC(=O)N2c2cccc(C(F)(F)F)c2)c2ccccc21 (stereo unspecified) | inactive: 113%
51 | CCOC(=O)C1CCC(CN(Cc2ccc(Cl)cc2)S(=O)(=O)c2ccc(Br)cc2)CC1 (stereo unspecified) | inactive: 76%
52 | CCCN1CCN(CCNC(=O)Nc2ccc(OC)c(OC)c2)CC1 | inactive: 77%
53 | CCS(=O)(=O)N1CCc2cc(C(=O)NCCc3ccccc3)ccc21 | inactive: 82%
54 | C=CCc1cccc2cc(C(N)=O)c(=N)oc12 | inactive: 88%
55 | CCOc1ccc(NC(=O)c2cn(C)c(=O)c3cc(OC)c(OC)cc23)cc1 | inactive: 69%
56 | Cc1cc(C)n(CCc2nc3c4ccccc4nc(N4CCN(c5ccccc5F)CC4)n3n2)n1 | inactive: 85%
